± gives the standard deviation of the averaged measurements. The list shows a part of the results.
test system: PfAP2-EXP AP2 domain (GST-tagged); experiment: gcPBM binding intensity (ln(normalized median fluorescence intensity)); higher = stronger DNA binding
Summary of the method: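 Plasmodium falciparum DNA-binding domains carrying a GST tag were expressed in E. coli and applied for 1 h, at about 25 μg on average, to an Agilent 4 × 180k array. The array held primer-extended double-stranded 36-bp intergenic genomic probes together with negative controls, and binding took place in 1× PBS with 1% milk, 0.2 mg/ml BSA, 0.5% salmon testes DNA and 0.03% Triton X-100. An Alexa488 anti-GST antibody detected bound protein, and the array was scanned at 488 nm. Binding intensity is taken as the highest Masliner-normalised natural-log median intensity across replicate spots of either probe orientation.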

Row | Sequence | gcPBM binding intensity (ln)
1 | AATATAAAAAAAAAAAAAAAAAAAAAAAAAAAGACA [CACACA_negctrl_site983] | 8.19 ± 0.45
2 | CAATTATTGTAATGCATGCACTGAATATAAAAAGAA | 10.3 ± 0.23
3 | TTTATATGTATTAAGTGTACACATATAATGTATTTT [XGTACX_site16] | 8.71 ± 0.014
4 | AAATTAATGTATATGTGAAGCAAGGGATGCGGCAGA [CACACA_negctrl_site406] | 8.86 ± 0.18
5 | ATATATATATATATATAATATATAATATATATATAT [CACACA_negctrl_site96] | 10.02 ± 0.071
6 | TCCAATTGTTCTAGTGTGCACATAAATAAATCTCAT | 9 ± 0.31
7 | TTCATATTCGATAAAGTGCATTAATTTTATTTATCA | 8.525 ± 0.035
8 | AATACTTTTTTCTGTACACACTTGATTTACTATAAT [CACACA_site5544] | 8.95 ± 0.38
9 | AAGAGTTAAAAAAATACACACATATAGATTTTTTTA [CACACA_site7018] | 8.38 ± 0.35
10 | ATAAATAAAAAAGAAAGAAAGAAAGAAACAAACAAA [CACACA_negctrl_site1198] | 8.56 ± 0.63
11 | TATTAATGCAAATGTTATATGTGCATACATAAATGT [CACACA_negctrl_site790] | 8.34 ± 0.24
12 | TATTACATACATATCTGTACATATATTAATGCACAA [XGTACX_site3315] | 8.62 ± 0.25
13 | AAAAATATTAAAAAAGGTACACAGCATATCTCTTTT [XGTACX_site65] | 8.33 ± 0.58
14 | AAAAAAAACAGACACACACACATTCAATATAAAACA [CACACA_site41] | 8.62 ± 0.54
15 | ATATCTTATATTATCACACACACACCCACAAAACAG [CACACA_site1464] | 9.06 ± 0.43
16 | ATGATATGGATAAATACACACAATATAATAATGGGT [CACACA_site4905] | 8.74 ± 0.34
17 | ATATGTATAAATATAAATATATATATATATATATAT [CACACA_negctrl_site705] | 10.1 ± 0.29
18 | ATTTTATATATGTGTTGTACGGTGAACATTTTGATA [XGTACX_site6538] | 8.71 ± 0.43
19 | ACGTTAATATCTACAAGTACCCACATTAACAGGAAA [XGTACX_site2616] | 8.71 ± 0.33
20 | TATATAAACATCGGTAGTACACACATTCATGTATTT [XGTACX_site6443] | 8.7 ± 0.46
21 | GGATCATTTTTAAAGGAACACACAAAAAAAATTATA [CACACA_site8381] | 8.64 ± 0.49
22 | TTTTTTTTGAAGAATACATGCATATTTTCTATATTC [TGCATGCA_site43] | 8.53 ± 0.33
23 | ATATAAAATATGTATGAGGAATAAAATTAAAAAAAA [XGTACX_negctrl_site173] | 8.47 ± 0.47

Row | Sequence | gcPBM binding intensity (ln)
24 | TATTAAATATATATTACATGCAAAAAAAAAAAACAA [TGCATGCA_site705] | 8.72 ± 0.16
25 | ATAAAAAAAGATGAACGTACATATATTTTAAAAATC [XGTACX_site5950] | 8.7 ± 0.45
26 | ACAATATGCAAAAAGTGTACACATTCATTTATATAA [XGTACX_site1061] | 8.66 ± 0.28
27 | AATATACAAATAAAGGTGCGAGATATTTTTACTTTT | 8.59 ± 0.33
28 | GTAAATATTTGTTGGGTGCTATCAATTATTTCAAAG | 8.61 ± 0.33
29 | TGCGGAAATAAGTGCACACATAGATATATGTATTTT [CACACA_site3689] | 9.1 ± 0.45
30 | ATATATATTAATAATGCATGTGATATAAATTAATAT [TGCATGCA_site930] | 8.81 ± 0.33
31 | ATCTATATCTATAATACACACATCATAAAATATGTA [CACACA_site7230] | 8.53 ± 0.27
32 | ATATTATATATGTATAGTACATATTATAAGAAAAAT [XGTACX_site3457] | 8.52 ± 0.37
33 | CGGCACATTCTATATACACACATATAAATATATACA [CACACA_site566] | 8.45 ± 0.42
34 | TACAATTCGTAATACACACACATATAAATAAATATT [CACACA_site7720] | 8.44 ± 0.38
35 | TGATCAAGTAAGAAAAGTACAAAAAAAGTAAAAAAT [XGTACX_site6529] | 8.95 ± 0.54
36 | GTTCTTTCAAATTATACACACCAAAAAAAAAAAAAA [CACACA_site5660] | 8.41 ± 0.33
37 | GATATGTTTTATTATGTTGATGATAACAGGTAGTTT [CACACA_negctrl_site356] | 8.46 ± 0.38
38 | GCGTGTGTACAATGAGTGCATATCTAAAGGGAAGAT | 9.3 ± 0.33
39 | ATAAGTTTTTATTTTCTGCACTGTCGAATAATAGTT | 8.71 ± 0.31
40 | AAAAAAAACATACATACACACACATAAATATATATA [CACACA_site8864] | 8.9 ± 0.4
41 | ATGGATTATTTTTAAACATGCAGTAGTGATGAAAAA [TGCATGCA_site346] | 8.74 ± 0.4
42 | TATATTATAATATTCACACACTAACGTAAATCATTG [CACACA_site7318] | 8.48 ± 0.42
43 | TGGCAAAATAGGCACACACACATATACAGATATATT [CACACA_site4727] | 8.57 ± 0.59
44 | TCAATGAAATTAATATGTACATATTTTTATATAGTA [XGTACX_site7955] | 8.32 ± 0.28
45 | AAAAAATATATATATATATATATGTAATATTTTTTT [XGTACX_negctrl_site439] | 8.36 ± 0.33
46 | AAAACTATAAAAATTTTACACACTGTTTTTAAATAA [CACACA_site3667] | 8.32 ± 0.38

Row | Sequence | gcPBM binding intensity (ln)
47 | AGTAGCAAATATTAAGTGCATATTATATAATGTGTA [GTGCAC_site9546] | 8.64 ± 0.28
48 | TTTTTTTTTTTTTTTTGTACATATACATATATATAT [XGTACX_site1981] | 9.3 ± 0.11
49 | ATAAATATGGCAGTACGTACGTATATTCATATTCAT [XGTACX_site8042] | 8.56 ± 0.37
50 | ATTAAAAAAAAAAAAAAAAAACAAAAAAAAAAAAAA [CACACA_negctrl_site1187] | 8 ± 0.36
51 | TGTTCAGTATGGCACACACACAACAAAATAAAAAAA [CACACA_site4368] | 8.66 ± 0.47
52 | GGTTTACCCTATAAATGTACTCATAAATTATATATA [XGTACX_site5771] | 8.4 ± 0.3
53 | ATACGAAATAGAAACACACATACAATAAATAAATAT [CACACA_site2017] | 8.92 ± 0.42
54 | TAAGTGATCGCATAATGTACATATTATTTATTATTT [XGTACX_site3061] | 8.56 ± 0.24
55 | CATACATACATACATACACACATATATAAATATATG [CACACA_site7028] | 9.22 ± 0.18
56 | GGAAGGATATAACATACACACACACCCATATATATA [CACACA_site9376] | 8.95 ± 0.44
57 | TACATTTAAAAAAAAACACACATATTTATATTTATA [CACACA_site7236] | 8.01 ± 0.49
58 | TTTCCTGGTCAAGGGGTTACGGTTACGTCCTCTTGC [CACACA_negctrl_site856] | 8.34 ± 0.5
59 | CATATACATAGACACACACACACATAAATAAATATA [CACACA_site6749] | 8.66 ± 0.58
60 | TTATGTATTTATTTATGTACTAATTGTATGCATATT [XGTACX_site6436] | 8.7 ± 0.24
61 | ATTTGTATATATAATTGTACGCATATTCTATACGAT [XGTACX_site7367] | 8.46 ± 0.35
62 | ATACTTTATAAATACTAAAGTGTATTTTGTAATATA [CACACA_negctrl_site1710] | 8.16 ± 0.3
63 | AAAAATATGAAAGTAACTAAGTTGTTATTGATAACA [CACACA_negctrl_site1608] | 8.43 ± 0.29
64 | ACGTTAGGCTTATTTGCACACTTGTATTATAATTTT [CACACA_site1317] | 8.96 ± 0.38
65 | ATATTATCACAAGGTGGTACACAAAAAAAAAAAAAA [XGTACX_site8224] | 8.74 ± 0.26
66 | ATAAATATGGAGCACACACACATAAACATACAGATA [CACACA_site4395] | 8.82 ± 0.52
67 | TACTTTCACATTAAATGTACGTATAGTTTCATTCTT [XGTACX_site8528] | 8.78 ± 0.36
68 | ATATTAAAAATATATACACACATATATATAAATATA [CACACA_site2257] | 8.03 ± 0.3
69 | TTTGGAGAATTCATAGTGCATTTATTTATTGTTAAT | 8.41 ± 0.042

Row | Sequence | gcPBM binding intensity (ln)
70 | TATATTTAAGTACATAAATAAGCCCATTTACATACA [CACACA_negctrl_site1224] | 8.48 ± 0.21
71 | TTCTAAAATTATATAGTGCAATTATTTTATTTTTCT | 8.28 ± 0.26
72 | AAAAAAATAAAACACATACATATATGTATATATATA [GTGCAC_negctrl_site390] | 9.075 ± 0.021
73 | TAAATATATATATAAGTGCATTATATATATATATAA | 8.58 ± 0.028
74 | ATATGATAGTTTATATGTACATAAATAAATACATAC [XGTACX_site2917] | 8.6 ± 0.27
75 | ATTAATAATTATTATGGTACACATGTAACTACTCTC [XGTACX_site198] | 8.76 ± 0.35
76 | ATCTCTTACATATTCACACACATATAAATAACTACA [CACACA_site6816] | 8.86 ± 0.41
77 | AAAGAAAAAAAATAATGTACATATGTATTTGAGAAA [XGTACX_site3571] | 8.69 ± 0.38
78 | TGTAGAAGAACCCATGCATGCAGTATGAAAAAAAAA [TGCATGCA_site907] | 9.8 ± 0.18
79 | AAAAAAAGAAAAAAACGTACATGAAAATTTTTTGTT [XGTACX_site5135] | 8.77 ± 0.27
80 | ATAAATCCCAAAACCTTGCAAGACAACGTTTGATCA [CACACA_negctrl_site1327] | 8.31 ± 0.34
81 | CTATATAAAAAAATTGCACACATAAATATATACATA [CACACA_site8325] | 8.35 ± 0.33
82 | GAAACATACATTTTTTGTCCGTAAGTATTATAATAA [XGTACX_site3273] | 8.59 ± 0.3
83 | ATACATCAAGGACACACACACACACCCACACCCACA [CACACA_site8013] | 8.64 ± 0.4
84 | CACATAAAAATTGTGTTGCACTTTTATTCTTATATC | 8.43 ± 0.23
85 | ATTTTGCCTGACCCATGTACATATTATTTTTTGCAT [XGTACX_site2258] | 9.41 ± 0.4
86 | CTATGAATAGGAAAAAGTACTAAACCTTTATATATA [XGTACX_site5022] | 8.26 ± 0.29
87 | TCAAATATTCATAAATGTACATTTATTTTTCTCCTT [XGTACX_site5827] | 8.57 ± 0.44
88 | TAACTTAATATTAATGCACACAATTTATATATATAT [CACACA_site3903] | 9.79 ± 0.13
89 | TTTATATATTTTAGGTGTACATAAATTTTTATATAT [XGTACX_site5597] | 8.37 ± 0.33
90 | AACTTACTTGGACATACACACATATATATATATATA [CACACA_site2978] | 10.2 ± 0.44
91 | AGTAGAATATCCCCTACACACCCAAATAATTTACAA [CACACA_site8339] | 9.27 ± 0.64

— the supplement of paper PMC11417369
